Test results: PMC12136788
This is one part of the list.

B1: chr7:149068622:149068623:-_ENSMUSG00000025139_ENSMUST00000001950|mus_mus|FALSE|FALSE (ssRNA)
RNA: GGGAGUUCUACAGUCCGACGAUCAGACAGGUACUGAGUGAGGUUCCUGCUCUGCAGUGUCUGCAGUCUGCUGGUAACACUAAGUGGACCACUUAAGGAGGUUCUGCCUGCCUGACUCAUCCACCCUGCAAGAGGGCAUCUGCUCAACAGAGGAUUGAGCAUCA
B2: chr10:5892124:5892125:-_ENSMUSG00000061759_ENSMUST00000095893|mus_hu|FALSE|FALSE (ssRNA)
RNA: GGGAGUUCUACAGUCCGACGAUCCUUGAAAUUAUAUAUUUAACCUGAAAAAAAGUUGCUAAAAUUCCAAUAUAAAUGUAAAUAUCUUUAACUUGCUUAACCCAGCUAUCCCCAAAACAGUGUAGUGGGGCAAAAUGUUCAAAACAACAGAGGAUUGAGCAUCA
B3: chr2:60072322:60072323:+_ENSMUSG00000026977_ENSMUST00000102748|mus_mus|FALSE|FALSE (ssRNA)
RNA: GGGAGUUCUACAGUCCGACGAUCAGAUCUUGUAUUCAAGGAAUCUUGACUAGAUCUUCGUGAGAAAAAAGUAGAUGACAUGCUAGAAGCUAUCCGUGACAGCAAUCUCCUAGUUGUACGCCUACCUUCAUUGUCAGAAGAUUCCAACAGAGGAUUGAGCAUCA
B4: chr4:144460044:144460045:+_ENSG00000153147_ENST00000283131|hu_mus|hu_hu_hu_mus_False|18_78 (ssRNA)
RNA: GGGAGUUCUACAGUCCGACGAUCACGGUCCAUAGCCUGAAGAUCAACUUGCGGAUUCCAAUCAGAAUCAUAUAAAAUGACUACAUCAGCAGUUGCAAGAUUGAUGCCCAGACCACCAGCACGCGUGCUUAGCAUAAAUACAAACAACAGAGGAUUGAGCAUCA
B5: chr8:74858975:74858976:-_ENSG00000154582_ENST00000284811|hu_mus|hu_hu_hu_mus_True|18_108 (ssRNA)
RNA: GGGAGUUCUACAGUCCGACGAUCGACCUUGUACGUAAAAUACAUGCACACUUUUGAUAGCACAUGUGAGGGGAUCUCUCUAAAAUUGACCUCGUUGGUUUCAUUCUCAGCAAACUGACCUGGGCCACUCAACAUAGCCUUUAUCAACAGAGGAUUGAGCAUCA
B6: chr4:144449117:144449118:+_ENSG00000153147_ENST00000283131|hu_hu|motif|central (ssRNA)
RNA: GGGAGUUCUACAGUCCGACGAUCCACUAUUUCUGACAACUUAGAUUUUUCAUUUUUGAUCCUGUGAGCUUCAUCGGUUACGGAGUAUCUCCAAUUAAAUUUUUUGAACACAGACUUCUCUUUAAUAAGCAUUUCAUAAGAUGUCAACAGAGGAUUGAGCAUCA
B7: 108416455_108416656_1812_CDS_ENSMUSG00000032604_ENSMUST00000006838|mouse|control|control (ssRNA)
RNA: GGGAGUUCUACAGUCCGACGAUCAUCAGCUGGGAAAUUUGGCACUCGGAUGUCCAAGGGCUUGGGAGCAGGAAAGUUGGUGAUGACAACUUGUAGUGGCUCUAGAACAGCCAUGGCACGUGGGGCUGCAUCAUUCAGCACAUCCAACAGAGGAUUGAGCAUCA
B8: chr11:52220846:52220847:+_ENSMUSG00000036275_ENSMUST00000036952|mus_mus|motif|central (ssRNA)
RNA: GGGAGUUCUACAGUCCGACGAUCGGGCCUUUCAAAGGGAACACUGCUGCCAGAGGCACAAUAAAUGGAAAAUAAUAAGAACGGCACCAAAGGAUAAAGUAAUGUUUAACUCACAUUUCAGACACCUGAUUGAAUCUAGCUCUACAACAGAGGAUUGAGCAUCA
B9: chr7:7679991:7679992:-_ENSG00000106399_ENST00000396682|hu_hu|hu_hu_hu_mus_False|8_28 (ssRNA)
RNA: GGGAGUUCUACAGUCCGACGAUCUGGGAUGAAUCUUUUCCAGCUUCCCCACGAAGCACACGGGCCGGUCGAUAUACUGUGGUAACAUGCUGGCGUUGACGCGCGCUCUGGGCAAGUGCAUUAUGUCCACCAUGAUUCUGCCGCCAACAGAGGAUUGAGCAUCA
B10: chr1:225611761:225611762:-_ENSG00000143815_ENST00000272163|hu_mus|hu_hu_hu_mus_True|48_58 (ssRNA)
RNA: GGGAGUUCUACAGUCCGACGAUCCCAGGCCAUCGGCCUCUGACCACUUCACCCUCAACAAACUUCCUACUUGGCAUUUUCUAUAAUUAACCUGCGCGCGCUCCGGCGGGAACUCCAGCCACUCCAGGACAGUCACCAGCAGCCCAACAGAGGAUUGAGCAUCA
B11: chr7:141441981:141441982:+_ENSG00000106028_ENST00000265304|hu_mus|hu_hu_hu_mus_False|8_18 (ssRNA)
RNA: GGGAGUUCUACAGUCCGACGAUCCUCAUGUCUUACAAACUGACGAAAUACCUGUAACACAGGUCUUCGAAACAUGGCUUCUGUUUUUCUUACAACCUAAUCUUUAGGCUUUUCCUACCUGACGAUCUAACCCGAGCAAAAUGACAACAGAGGAUUGAGCAUCA
B12: chrX:73036348:73036349:-_ENSMUSG00000016382_ENSMUST00000114059|mus_hu|FALSE|FALSE (ssRNA)
RNA: GGGAGUUCUACAGUCCGACGAUCUGCAUACUUGGCAUUAUUGUGCUUGUCAUCUUCUGUUAGAUUGCCACUCUUCACAAGGUCAUAGUUUAUACAGCCUGGCUGGAUGGCAUCAAUUAAAUCCACAACUGCCAAACUGGAGCUCAACAGAGGAUUGAGCAUCA
B13: chr2:29169617:29169618:+_ENSG00000163811_ENST00000407426|hu_hu|motif|central (ssRNA)
RNA: GGGAGUUCUACAGUCCGACGAUCUAGUUUGACCGGCUUGCUUUGCUGUCUUCAUUCUUCUUCACUUUCAUUUUCAGGAUCGGAAUCAGAAUCUCCAUUUAAUUCUUUUUCACUUGCUGUAUCUCUGUCCUCGCCAUUUUCUUCCAACAGAGGAUUGAGCAUCA
B14: chr9:35067926:35067927:-_ENSG00000165280_ENST00000358901|hu_hu|FALSE|FALSE (ssRNA)
RNA: GGGAGUUCUACAGUCCGACGAUCUGGCUGGAUGCUGAUGACAUCCCCUAGGCGUACACGAAGGUUAUUCCGAACAACUCUAUUCAUCCGAAUCUUCUCAUCAGAACAAGUAUCAUCAGAAAGGACGAUGCAAACAGCUUCUCGCAACAGAGGAUUGAGCAUCA

Each binder was assayed against T1, UNK ZnF1-3 (human, UniProt Q9C0B0 31-174) (assay: nsRBNS (natural sequence RNA bind-n-seq); RBNS binding buffer (assumed for nsRBNS): 25 mM Tris pH 7.5, 150 mM KCl, 3 mM MgCl2, 0.01% Triton X-100, 500 ug/ml BSA, 20 U/ml SUPERase-In, 4 C; UNK is unkempt and MSI1 is Musashi-1; names of the RNAs are library labels; protein concentration not given here; high values mean tight binding).
T1 sequence: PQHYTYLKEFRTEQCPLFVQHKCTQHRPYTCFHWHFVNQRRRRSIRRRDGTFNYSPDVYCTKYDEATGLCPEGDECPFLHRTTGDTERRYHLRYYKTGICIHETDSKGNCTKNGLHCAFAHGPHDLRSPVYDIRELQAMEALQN

First: B1
Second: B2
The binding signal of the first is lower: 0.842 enrichment R for the first, 1.91 enrichment R for the second.

First: B3
Second: B4
The binding signal of the first is lower: 0.303 enrichment R for the first, 1.27 enrichment R for the second.

Going from B5 to B6, the binding signal rises from 0.704 enrichment R to 0.939 enrichment R.

First: B7
Second: B8
The binding signal of the first is lower: 1.3 enrichment R for the first, 2.95 enrichment R for the second.

Compared with B9, B10 is higher in binding signal: 0.462 enrichment R for the first, 1.56 enrichment R for the second.

Going from B11 to B12, the binding signal rises from 0.715 enrichment R to 0.777 enrichment R.

Compared with B13, B14 is higher in binding signal: 0.285 enrichment R for the first, 0.954 enrichment R for the second.
